Measurements taken from PubChem BioAssay AID504332 (National Center for Advancing Translational Sciences (NCATS), 2011).
In all, about 350,000 compounds went through this assay and about 31,000 (8.9%) were called active. The inconclusive results got no clear call from the source; some entries with a clear call stand among them for comparison. Calls follow the shape of the dose curve; as a rule, active = well fitted inhibition curve with a large enough effect; inconclusive = small, poorly fitted or top-dose-only effect; inactive = no such curve, though single readings can be large or run the other way. A potency beside an inconclusive call is a rough fit, not a confirmed value.

What follows are compounds tested against Histone-lysine N-methyltransferase EHMT2 (Homo sapiens) (UniProt Q96KQ7) (assay: qHTS Assay for Inhibitors of Histone Lysine Methyltransferase G9a). Conditions: G9a H3K9 monomethylation, AlphaScreen, 2 h; activity, negative = inhibition: at 59 µM (top of the series) unless noted.
Outline: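 AlphaScreen read-out: biotin-H3K9 peptide (500 nM) methylation by 20 nM enzyme with 20 uM SAM, 2 h at room temperature after 15 min compound preincubation; anti-monomethyl H3K9 antibody plus donor/acceptor beads, 10 min dark.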
% is scaled to controls: 0 for no effect and ±100 for the full control effect; potency is read from the fitted curve at half-maximal effect; tags tell the direction and shape of the fitted curve.
Also: nearly all actives have a fitted effect of over 75% in size.

UniProt Q96KQ7, sequence (Q96KQ7 whole entry, looked up): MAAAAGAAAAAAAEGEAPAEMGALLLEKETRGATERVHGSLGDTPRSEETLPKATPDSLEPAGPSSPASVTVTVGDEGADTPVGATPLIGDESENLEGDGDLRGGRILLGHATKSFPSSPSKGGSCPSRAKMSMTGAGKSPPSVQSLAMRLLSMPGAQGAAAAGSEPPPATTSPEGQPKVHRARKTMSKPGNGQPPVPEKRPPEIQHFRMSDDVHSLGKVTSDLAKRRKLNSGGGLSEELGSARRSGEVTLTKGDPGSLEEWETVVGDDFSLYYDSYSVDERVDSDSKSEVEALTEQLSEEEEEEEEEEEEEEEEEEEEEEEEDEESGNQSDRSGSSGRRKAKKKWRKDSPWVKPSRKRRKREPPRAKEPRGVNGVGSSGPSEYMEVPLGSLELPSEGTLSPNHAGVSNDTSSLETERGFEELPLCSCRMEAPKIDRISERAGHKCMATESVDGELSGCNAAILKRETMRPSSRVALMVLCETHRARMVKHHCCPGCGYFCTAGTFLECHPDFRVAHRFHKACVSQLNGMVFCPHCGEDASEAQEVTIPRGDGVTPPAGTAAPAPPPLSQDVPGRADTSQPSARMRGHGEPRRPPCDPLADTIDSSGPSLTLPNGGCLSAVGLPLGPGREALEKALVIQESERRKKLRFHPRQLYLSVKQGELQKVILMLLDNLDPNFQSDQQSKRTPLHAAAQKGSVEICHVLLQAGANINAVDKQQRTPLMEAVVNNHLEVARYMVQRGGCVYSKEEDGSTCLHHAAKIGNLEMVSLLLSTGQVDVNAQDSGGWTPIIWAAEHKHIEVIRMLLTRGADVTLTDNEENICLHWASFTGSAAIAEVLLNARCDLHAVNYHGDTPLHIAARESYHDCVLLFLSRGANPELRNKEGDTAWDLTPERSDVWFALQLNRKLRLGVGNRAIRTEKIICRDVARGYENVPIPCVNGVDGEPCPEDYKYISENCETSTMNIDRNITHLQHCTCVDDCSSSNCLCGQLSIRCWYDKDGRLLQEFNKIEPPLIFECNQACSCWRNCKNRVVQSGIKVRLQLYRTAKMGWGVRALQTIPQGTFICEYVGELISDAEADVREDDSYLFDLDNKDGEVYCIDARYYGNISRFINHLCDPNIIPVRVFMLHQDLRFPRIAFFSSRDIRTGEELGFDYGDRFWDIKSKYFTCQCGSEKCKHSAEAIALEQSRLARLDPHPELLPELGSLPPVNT

SMILES | Potency | activity, negative = inhibition
O=C(NCc1ccco1)C(NS(=O)(=O)c1cccc2nsnc12)c1ccccc1 (stereo unspecified) | inconclusive: 3.55 µM [inhibitor, partial curve, poor fit] | –
O=C(NCC1CCCO1)c1ccc(-c2ccccc2Cl)o1 (stereo unspecified) | – | inactive: -29.1% [at 102 µM]
COc1ccc(OCc2nn3c(Cn4cnc5ccccc54)nnc3s2)cc1 | active: 5.62 µM | –
COc1ccc(-c2cn3c(n2)sc2cc(C(=O)Nc4ccccc4F)ccc23)cc1 | – | inactive: 5.43%
COc1c([N+](=O)[O-])c(=O)n(-c2ccccc2)c2ccccc12 | inconclusive: 22.4 µM [inhibitor, partial curve, poor fit] | –
CN(CC(=O)Nc1ccc(Cl)c(C(F)(F)F)c1)C(=O)CNC(=O)C1CCCCC1 | – | inactive: -16.1% [at 2.33 µM]
CCn1nnnc1SCC(=O)c1cccc(OC)c1 | inconclusive: 50.1 µM [inhibitor, partial curve, poor fit] | –
CC(=O)/C=C(\C)NCCNc1c(F)c(F)c(CO)c(F)c1F | inconclusive: 89.1 µM [inhibitor, single point] | –
CS(=O)(=O)c1nc(-c2ccc(Br)cc2)n[nH]1 | inconclusive: 70.8 µM [inhibitor, single point] | –
O=C(CCS(=O)(=O)c1ccccc1)Nc1ccc(N2CCN(Cc3ccccc3)CC2)cc1 | inconclusive: 35.5 µM [inhibitor, single point] | –
Cc1c(Br)c([N+](=O)[O-])nn1CC(=O)Nc1sc2c(c1C(=O)OC(C)C)CCCC2 | inconclusive: 39.8 µM [inhibitor, single point] | –
O=C(NCc1ccccc1C(F)(F)F)C12CN(Cc3ccccc3)CC1C(c1ccc([N+](=O)[O-])cc1)=NO2 (stereo unspecified) | – | inconclusive: -111% [inhibitor] [at 12.7 µM]
Cc1ccc(Cn2c(SCc3ccc(C(=O)NCCc4ccccc4)cc3)nc3ccncc32)cc1 | – | inactive: -32.7%
O=Cc1cccn1-c1c(C(=O)O)cnn1-c1ccccc1 | – | inactive: -50.2% [at 102 µM]
Cc1ccc(-c2nn(-c3ccccc3)cc2C(=O)Nc2ccc(C(=O)O)cc2)cc1 | inconclusive: 89.1 µM [inhibitor, partial curve, poor fit] | –
O=c1c(C(c2ccc(Br)cc2)c2c(O)nc3n(c2=O)CCS3)c(O)nc2n1CCS2 | inconclusive: 28.2 µM [inhibitor, single point] | –
CCCCN(Cc1nc2ccccc2c(=O)[nH]1)C(=O)COc1ccc(F)cc1Cl | – | inactive: -4.31% [at 12.7 µM]
NC(=O)c1ccccc1NC(=O)COC(=O)C1(c2ccccc2)CC1 | inconclusive: 89.1 µM [inhibitor, partial curve, poor fit] | –
Cc1ccc(CNC(=O)C(=O)NCC(c2cccs2)S(=O)(=O)c2cccs2)cc1 (stereo unspecified) | – | inactive: 6.4%
CCC(COC)NC(=O)CCc1nnc(Cc2c[nH]c3ccccc23)o1 (stereo unspecified) | inconclusive: 70.8 µM [inhibitor, single point] | –
C=CCOc1ccc(CC(=O)O)cc1Cl | – | inactive: 27.4%
Cc1cc(Cl)ccc1OC(C)C(=O)Nc1ccc([N+](=O)[O-])cn1 (stereo unspecified) | inconclusive: 39.8 µM [inhibitor, single point] | –
OCCN1CCN(CC#CCn2c3ccccc3c3ccccc32)CC1 | inconclusive: 39.8 µM [inhibitor, single point] | –
CSc1nc(C)nc2c1c(=O)n(C)c(=O)n2C | inconclusive: 79.4 µM [inhibitor, single point] | –

SMILES | Potency | activity, negative = inhibition
CCCc1cc(C(=O)NNC(=S)Nc2cccc(C)c2)cs1 | active: 8.91 µM | –
COc1ccc(OCc2cc(C(=O)N3CCCC3)no2)c2ccccc12 | active: 39.8 µM | –
Cc1nc(/N=C(\N)NC(=O)N2c3ccccc3Sc3ccccc32)nc2ccccc12 | inconclusive: 6.31 µM [inhibitor, full curve, poor fit] | –
Brc1ccc2[nH]c3c(N4CCc5ccccc5C4)ncnc3c2c1 | – | inactive: -46.3%
CC1CCN(CC(O)COc2ccc(-c3ccccc3)cc2)CC1 (stereo unspecified) | inconclusive: 89.1 µM [inhibitor, single point] | –
CCOc1cccc(NC(=O)C2CC(=O)NC(=Nc3ccccc3)S2)c1 (stereo unspecified) | inconclusive: 17.8 µM [inhibitor, single point] | –
CC1CCCN(c2ncnc3c2nc2n3CCCCC2)C1 (stereo unspecified) | – | inactive: 6.94%
C=CC(=O)c1ccc2ccccc2c1 | active: 1.26 µM | –
CN(C)c1ccc(CNc2nc(-c3ccco3)nn2S(C)(=O)=O)cc1 | inconclusive: 10 µM [inhibitor, partial curve] | –
CSCC[C@H](NC(=O)OC(C)(C)C)c1nnc(SCC=C(C)C)o1 | active: 50.1 µM | –
CCOC(=O)CCc1c(C)c2c(C)nn(-c3ccccc3)c2[nH]c1=O | inconclusive: 39.8 µM [inhibitor, single point] | –
Cc1cccc(NC(=O)CCNS(=O)(=O)c2ccc3c(c2)CCCC(=O)N3)c1C | – | inactive: -1.34%
Cc1sc2nc(CN3CCCC3)nc(N3CCN(C(=O)c4ccco4)CC3)c2c1C | inconclusive: 44.7 µM [inhibitor, partial curve] | –
Cc1ccccc1N(CC(=O)N1CCc2ccccc2C1)S(C)(=O)=O | – | inactive: 12% [at 102 µM]
O=C(c1cccc(C(=O)N2CCN(c3ccc(F)cc3)CC2)c1)N1CCN(c2ccc(F)cc2)CC1 | inconclusive: 89.1 µM [inhibitor, single point] | –
COC(=O)C1CCN(c2cc(=O)n(-c3ccc(OC)cc3)c(=O)[nH]2)CC1 | inconclusive: 79.4 µM [inhibitor, partial curve, poor fit] | –
Cc1cc(C=C2C(=O)c3ccccc3C2=O)c(C)n1-c1cccc(C(=O)O)c1 | active: 39.8 µM | –
CCn1cc(CN2CCCC(C(=O)c3ccc(-c4ccccc4)c(F)c3)C2)cn1 (stereo unspecified) | inconclusive: 25.1 µM [inhibitor, partial curve, poor fit] | –
NS(=O)(=O)c1cccc2c1c([N+](=O)[O-])cc1nc(O)c(O)nc12 | – | inactive: 10.6% [at 12.7 µM]
O=[N+]([O-])c1nn(-c2ccc3c(c2)OCCO3)n(O)c1=NCc1ccc(F)cc1 | inconclusive: 7.94 µM [inhibitor, full curve, poor fit] | –
O=c1[nH]c2ccccc2n1CCCOc1ccccc1 | – | inactive: -10.4%
O=C1CSC(c2ccc(Cl)cc2)N1 (stereo unspecified) | inconclusive: 89.1 µM [inhibitor, single point] | –
COCCn1c(SCC(=O)c2ccccc2)nc2cc(C(=O)NC3CCCC3)ccc2c1=O | – | inactive: 3.04%
CCCC(=O)Nc1ccc(NC(=O)c2sc3ccccc3c2Cl)cc1 | – | inactive: 0.593%

SMILES | Potency | activity, negative = inhibition
COC1(NS(=O)(=O)c2ccc(Br)cc2)C(C)=CC(=O)C=C1C | inconclusive: 89.1 µM [inhibitor, single point] | –
O=C(CCl)c1ccc2[nH]c(=O)oc2c1 | active: 44.7 µM | –
N#Cc1cccc(-c2nccc(NCc3cccnc3)n2)c1 | – | inactive: 15.2% [at 0.501 µM]
Cc1ccc(/C=C/C2=Cc3c(sc(NC(=O)CSc4n[nH]c(N)n4)c3C#N)C(C)(C)C2)o1 | active: 8.91 µM | –
O=C(OC(C(=O)NC1CCCCC1)c1ccccn1)c1cccs1 (stereo unspecified) | – | inactive: 8.37% [at 12.7 µM]
CCOC(=O)c1nn(-c2ccc(C)c(C)c2)c(=O)c(C#N)c1C | active: 44.7 µM | –
CN1CCN(C(=O)c2ccc(CN3CCOCC3)cc2)CC1 | inconclusive: 1.58 µM [inhibitor, full curve, poor fit] | –
O=C1CN(CC(=O)Nc2cccc(Cl)c2Cl)c2ccccc2N1 | inconclusive: 11.2 µM [inhibitor, full curve, poor fit] | –
COc1ccccc1C(=O)Nc1nnc(S(=O)(=O)N(C)Cc2ccccc2)s1 | inconclusive: 89.1 µM [inhibitor, single point] | –
CCOC(=O)CSC1=Nc2ccccc2C2=NC(CCC(=O)NCc3ccccc3)C(=O)N12 (stereo unspecified) | – | inactive: 7.91%
CC(=O)c1cccc(NC(=S)NNC(=O)c2ccc(C)c([N+](=O)[O-])c2)c1 | active: 20 µM | –
CCOC(=O)N1CCC(N2C(=O)c3ccccc3C2Nc2cccnc2)CC1 (stereo unspecified) | inconclusive: 50.1 µM [inhibitor, partial curve, poor fit] | –
COc1ccc(NC(=O)CN(c2cccc(C)c2C)S(=O)(=O)c2ccccc2)cc1OC | – | inactive: -44.6%
COc1ccc(C(=O)Nc2ccccc2C(=O)O)cc1NC(=O)C(c1ccccc1)c1ccccc1 | inconclusive: 50.1 µM [inhibitor, partial curve] | –
O=C(Cc1ccc(Cl)cc1)NCCS(=O)(=O)N1CCN(c2ccccc2)CC1 | – | inactive: -0.729% [at 0.501 µM]
CCCCNC(=O)C1CCCN(c2nnc(C)c3c(C)n(-c4ccc(Cl)cc4)nc23)C1 (stereo unspecified) | – | inactive: -11%
Cc1cc(NC(=O)c2cccc(S(=O)(=O)Nc3cccc(C(=O)O)c3)c2)no1 | inconclusive: 79.4 µM [inhibitor, single point] | –
O=C(CSc1nnc(-c2cccs2)o1)Oc1ccc(Cl)cc1 | – | inactive: -26%
COc1ccc2nc(NC(=O)CSc3nnc(C)s3)sc2c1 | – | inactive: 4.01% [at 102 µM]
CCN1CCc2c(C#N)c(NCc3ccccc3)nc(NCCO)c2C1 | inconclusive: 79.4 µM [inhibitor, single point] | –
COc1ccccc1C(=O)Nc1nc2ccccc2[nH]1 | inconclusive: 89.1 µM [inhibitor, single point] | –
CCOC(=O)c1[nH]c(C)c(CN(CCc2ccccc2)C(=O)CCC(=O)O)c1C | inconclusive: 89.1 µM [inhibitor, single point] | –
Cc1ccc2[nH]c(C(=O)NCCN3CCCC3)cc2c1 | inconclusive: 89.1 µM [inhibitor, single point] | –
